In PubChem BioAssay AID588855 (National Center for Advancing Translational Sciences (NCATS), 2011):
Screen size: about 410,000 compounds; about 5,000 (1.2%) were called active. Inconclusive results, whose numbers are uncertain, are shown with a selection of clear calls. Calls come from the whole dose curve; as a rule, active = well fitted inhibition curve with a large enough effect; inconclusive = small, poorly fitted or top-dose-only effect; inactive = no such curve, though single readings can be large or run the other way. Where the call is inconclusive, the potency comes from a doubtful curve fit.

Assay: qHTS for Inhibitors of TGF-b; note: nearly all actives have a fitted effect of over 65% in size
Settings: HepG2 CAGA-GFP TGF-b/SMAD3 reporter, GFP fluorescence, 18 h, TGF-beta stimulated, 500 pg/mL final; series mostly up to 46.1 µM; activity, negative = inhibition: at the top concentration
In short: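 HEPG2 CAGA-GFP, 1000 cells/well; 2 h settle, 37 C; cpd via pin tool; TGF-b 500 pg/mL final; 18 h, 37 C; GFP imaging ex488/em500-530; %Activity normalised to -TGF-b and +DMSO controls; CRC fit, curve class.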
% is set by controls: 0 for no effect and ±100 for the full control effect; potency is the fitted concentration of half-maximal effect; tags give direction and shape of the fitted curve.

SMILES	activity, negative = inhibition	Potency
O=C(C[C@@H]1C/C=C\C[C@H](NC(=O)OCC2c3ccccc3-c3ccccc32)C(=O)OC[C@@H]2CCCN2C1=O)NCCO	inactive: -1.93%	–
COc1cc(SC)ccc1C(=O)Nc1cccc(S(=O)(=O)NC2=NCCCCC2)c1	–	inconclusive: 10 µM [inhibitor, single point]
CC1(Cc2ccc(F)cc2)C(=O)Nc2ccc(-c3cccnc3)cc21 (centres undefined)	inactive: -6.21%	–
CC(Sc1nnc(Nc2ccccc2)s1)C(=O)NC1CCCc2ccccc21 (centres undefined)	–	inconclusive: 6.31 µM [inhibitor, partial curve]
COC(=O)c1ccc2nc(NC(=O)CCS(=O)(=O)c3ccccc3)sc2c1	–	inconclusive: 3.55 µM [inhibitor, full curve]
Cc1ccc(C(=O)Oc2ccc(C(=S)N3CCOCC3)cc2)cc1	–	inconclusive: 0.562 µM [inhibitor, partial curve, poor fit]
COC(=O)c1ccc(NC(=O)N2CCC(CN3CCc4ccccc4C3)CC2)cc1	inactive: 8.62%	–
COc1cc(/C=C2/S/C(=N/S(=O)(=O)Cc3ccccc3)NC2=O)c([N+](=O)[O-])cc1OC	inactive: -23.1%	–
Cc1cc([N+](=O)[O-])ccc1NC(=S)NC(=O)C(c1ccccc1)c1ccccc1	–	inconclusive: 28.2 µM [inhibitor, single point]
CCn1c(Sc2ccc([N+](=O)[O-])cn2)nnc1-c1ccco1	–	inconclusive: 15.8 µM [inhibitor, single point]
Cc1ccc(NC(=O)c2nc(S(=O)(=O)Cc3cccc(C)c3)ncc2Cl)cc1	–	active: 3.16 µM
CCCN(CCC)C(=O)c1c[nH]c2ccc(S(=O)(=O)Nc3cc(C)cc(C)c3)cc2c1=O	–	inconclusive: 15.8 µM [inhibitor, single point]
Cc1ccc(SCCNS(=O)(=O)c2ccc(F)cc2)cc1	–	inconclusive: 5.62 µM [inhibitor, single point]
O=[N+]([O-])c1ccc(CN2CC(N3CCC(Cc4ccccc4)CC3)CS2(=O)=O)cc1 (centres undefined)	–	inconclusive: 17.8 µM [inhibitor, single point]
C=C1CCN(C(CC(C)C)C(=O)NCCCc2ccccc2)S(=O)(=O)c2ccccc21 (centres undefined)	–	active: 11.2 µM
COc1cc(-c2nc3n(n2)C(c2ccc(F)cc2)C(C(N)=O)=C(C)N3)cc(OC)c1OC (centres undefined)	inactive: 8.34%	–
O=C1NC2(CCCCCC2)C(=O)N1Cc1ccccc1Cl	inactive: -12.8%	–
Cc1cccc(C2c3[nH]c4ccccc4c3CCN2C(=O)c2cn(C)c3ccccc3c2=O)n1 (centres undefined)	–	inconclusive: 11.2 µM [inhibitor, partial curve, poor fit]
Cc1cccc(NC(=O)c2cc(NC(=O)C3CC=CCC3C(=O)O)ccc2N2CCOCC2)c1 (centres undefined)	–	inconclusive: 35.5 µM [inhibitor, single point]
CCCC[C@@H]1CCCO[C@@](C(=O)NCCN2CCOCC2)(C(F)(F)F)C1	–	inconclusive: 10 µM [inhibitor, partial curve, poor fit]

SMILES	activity, negative = inhibition	Potency
COc1cccc(-c2cccc(-c3nc(C(=O)Nc4ccc(-c5ccccc5)cc4)cc4c3[C@H](CCO)N(S(=O)C(C)(C)C)C4)c2)c1 (some centres undefined)	–	inconclusive: 35.5 µM [inhibitor, single point]
CCN(C(=O)Cn1c(SCC(=O)NCc2ccccc2)nc2ccccc21)c1cccc(C)c1	–	inconclusive: 12.6 µM [inhibitor, partial curve]
O=C(NCc1ccccc1Cl)c1cnc(N2CCCCC2)c2ccccc12	–	inconclusive: 35.5 µM [inhibitor, single point]
CCOCCCNS(=O)(=O)c1cc(Br)cc2c1N(C(=O)C1CC1)CC2	–	inconclusive: 35.5 µM [inhibitor, single point]
CNC(=O)c1ccsc1NC(=O)c1sc2ccccc2c1Cl	inactive: -17.7%	–
C[C@H](CO)N1C[C@H](C)[C@@H](CN(C)C(=O)Nc2ccc(C(F)(F)F)cc2)Oc2c(NC(=O)CCC(F)(F)F)cccc2C1=O	–	inconclusive: 7.08 µM [inhibitor, full curve, poor fit]
O=C(c1cccc(OC2CCN(Cc3cc(F)cc(F)c3)CC2)c1)N1CCCC1	–	inconclusive: 11.2 µM [inhibitor, partial curve]
Cc1cccn2c(Nc3ccc4c(c3)OCCO4)c(-c3ccc(Br)o3)nc12	–	inconclusive: 35.5 µM [inhibitor, single point]
COc1ccc(CC(N)c2csc(NC(=O)NC(c3ccccc3)c3ccccc3)n2)cc1 (centres undefined)	–	inconclusive: 35.5 µM [inhibitor, single point]
Cc1cccc2nc(CSC(=N)N)c(Br)n12	–	inconclusive: 35.5 µM [inhibitor, single point]
CC1CCN(C(=S)c2ccc3c(c2)OCO3)CC1	–	inconclusive: 6.31 µM [inhibitor, single point]
Cc1cccc2cc3c(nc12)SC(=NCC1CCCO1)N(Cc1ccco1)C3 (centres undefined)	–	inconclusive: 15.8 µM [inhibitor, single point]
Nc1c(S(=O)(=O)c2cccs2)c2nc3ccccc3nc2n1/N=C/c1cccc(O)c1	–	inconclusive: 11.2 µM [inhibitor, partial curve, poor fit]
COc1ccc(C(=O)c2c3ccc([N+](=O)[O-])cc3[n+]([O-])n2CCCC(N)=O)cc1	–	inconclusive: 3.16 µM [inhibitor, single point]
Cc1cc(C)nc(NS(=O)(=O)c2ccc(NC(=O)CSc3nc4ccccc4[nH]3)cc2)n1	–	inconclusive: 5.62 µM [inhibitor, single point]
Cc1ccc(C)c(Oc2cc(F)nc(N)n2)c1	–	inconclusive: 12.6 µM [inhibitor, single point]
COc1ccc(NC(=O)CSc2nc(-c3ccc(OC)cc3)cc(=O)[nH]2)cc1	inactive: 32.5%	–
O=C(CN(c1cccc(C(F)(F)F)c1)S(=O)(=O)c1ccc(Cl)c([N+](=O)[O-])c1)NCc1ccc(F)cc1	–	inconclusive: 35.5 µM [inhibitor, single point]
CCOC(=O)c1cc(S(=O)(=O)Nc2ccc(OC(F)(F)F)cc2)[nH]n1	inactive: -4.79%	–
